From the supplement of paper PMC3334620
Over roughly 33,000 sequences, “E-score (-0.5 to 0.5)” has its median near -0.035; the highest 2% begin near 0.35. Some of the results follow.

target: T1, Pdr3 (UniProt P33200); experiment: PBM E-score (8-mer binding enrichment) (E-score (-0.5 to 0.5)); higher = stronger / more preferred TF binding; most listed sequences are background and not binding sites; details: protein concentration: 200 nM; construct: GST-full length
T1 sequence: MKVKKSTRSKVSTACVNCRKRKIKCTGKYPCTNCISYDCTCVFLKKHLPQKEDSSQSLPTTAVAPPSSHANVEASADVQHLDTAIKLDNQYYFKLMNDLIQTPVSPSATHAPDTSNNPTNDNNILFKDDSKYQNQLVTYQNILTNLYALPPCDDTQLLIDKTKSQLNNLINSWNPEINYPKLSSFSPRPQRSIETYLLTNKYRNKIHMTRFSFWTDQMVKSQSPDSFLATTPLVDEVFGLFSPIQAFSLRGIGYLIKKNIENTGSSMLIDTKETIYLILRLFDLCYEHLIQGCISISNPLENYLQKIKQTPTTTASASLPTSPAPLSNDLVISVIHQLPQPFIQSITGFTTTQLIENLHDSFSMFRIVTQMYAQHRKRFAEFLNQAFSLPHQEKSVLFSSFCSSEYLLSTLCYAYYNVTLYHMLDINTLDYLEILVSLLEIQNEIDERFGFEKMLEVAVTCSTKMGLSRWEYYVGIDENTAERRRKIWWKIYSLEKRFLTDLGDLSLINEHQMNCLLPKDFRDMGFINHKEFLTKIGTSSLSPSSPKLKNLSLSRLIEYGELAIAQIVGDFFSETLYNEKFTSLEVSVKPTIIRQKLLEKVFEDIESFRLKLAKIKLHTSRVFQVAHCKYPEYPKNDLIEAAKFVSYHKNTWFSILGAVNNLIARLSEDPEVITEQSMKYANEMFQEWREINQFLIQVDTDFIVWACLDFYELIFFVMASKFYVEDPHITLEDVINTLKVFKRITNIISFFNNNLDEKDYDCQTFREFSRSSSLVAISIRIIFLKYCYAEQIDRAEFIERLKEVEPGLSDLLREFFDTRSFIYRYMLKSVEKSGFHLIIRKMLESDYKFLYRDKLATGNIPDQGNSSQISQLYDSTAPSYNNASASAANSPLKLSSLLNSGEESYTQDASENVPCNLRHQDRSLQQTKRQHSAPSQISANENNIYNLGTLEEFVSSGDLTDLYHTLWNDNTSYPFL
How it was run: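 Masliner-normalised scans of fluorescent anti-GST signal were the basis for scoring. That signal came from GST-tagged yeast transcription factors applied at about 100-200 nM to double-stranded universal all-10-mer Agilent arrays on fresh or once-stripped slides. Each ungapped eight-base word, pooled with its reverse complement, received an E-score from the Universal PBM Analysis Suite.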

| Sequence | PBM E-score |
| --- | --- |
| AATGCCCC | 0.0531 |
| ACACTAGT | -0.167 |
| GATAGCTA | -0.00062 |
| CGACTGAC | -0.188 |
| GTACCAGA | -0.21 |
| CAAATATC | 0.184 |
| CCCGTACA | -0.0847 |
| ACGCTTCT | -0.145 |
| GAGCTGGA | -0.0583 |
| GCCAACAC | 0.0219 |
| GTGCAGTA | -0.0405 |
| CAATCTTC | 0.0318 |
| ATCTCGTG | -0.0801 |
| ATTCCCCC | 0.0243 |
| TGGTTTAA | -0.163 |
| ATACGCAG | -0.25 |
| CACGCCCC | 0.116 |
| ATCACTCC | 0.0733 |
| ATACATCC | 0.119 |
| CAATTTCC | 0.262 |
| GATGCAGC | -0.017 |
| CAACTAGG | -0.159 |
| AGCGCTGG | -0.0149 |
| AGGCCGAT | 0.141 |
| AACTTCCA | 0.0852 |

| Sequence | PBM E-score |
| --- | --- |
| AATCCATT | 0.101 |
| CGGGAGCA | 0.192 |
| CACTTTGC | -0.103 |
| GGTGCAGA | -0.13 |
| ATGAACCC | 0.102 |
| TATGTCCA | -0.0466 |
| GCAGCAAC | 0.104 |
| AAGCTAAC | -0.174 |
| ATATTGAG | 0.0711 |
| CTCCCTGA | -0.137 |
| CACCAAAG | 0.083 |
| CTACCTGA | -0.202 |
| CCGTCTTC | 0.204 |
| AATTGCCT | 0.0195 |
| AGACCCAT | -0.0251 |
| ACGGAGAA | 0.265 |
| AAATAGTC | 0.0898 |
| GAGAAGGC | -0.183 |
| CGAGGTGA | 0.13 |
| CCATGGGG | 0.0779 |
| CACTCCCC | 0.225 |
| GGAATCTA | 0.231 |
| CACTCTGG | -0.174 |
| AGCCAATA | -0.223 |
| CACCACCC | 0.0174 |

| Sequence | PBM E-score |
| --- | --- |
| CAACCGCA | 0.0919 |
| ATGATCTC | 0.0123 |
| CGTACTTA | -0.0288 |
| AACTTGGG | 0.137 |
| GACCGCCA | -0.00178 |
| CGTGAGTA | 0.014 |
| AAGCTCGC | -0.0095 |
| AGGATCGG | 0.0965 |
| AGACCCGC | 0.153 |
| GATCAGCA | 0.0224 |
| TAAATCAA | -0.0605 |
| AGACCCCA | -0.0233 |
| ACCGGAGG | 0.281 |
| ATGAGACG | -0.119 |
| TGAGCCCA | -0.209 |
| ACAGAGGA | -0.0781 |
| ACGGATCG | 0.236 |
| CATATTGG | -0.263 |
| CGATAGAA | -0.00477 |
| CTTGGCGC | 0.123 |
| GAAATCAA | 0.1 |
| CAGTTCGC | 0.0332 |
| AATAAAGC | -0.2 |
| CACTGTAA | -0.0611 |
| CTGACACA | -0.175 |

| Sequence | PBM E-score |
| --- | --- |
| ATGTTCAG | -0.207 |
| ACAAGAGT | -0.136 |
| ATAAGAAG | 0.116 |
| GAGGGGGC | -0.242 |
| ATACGCCC | -0.0342 |
| CATTACTA | -0.0628 |
| AGGTTCTA | -0.25 |
| ATCCACGA | -0.119 |
| CAAGCAGC | -0.191 |
| ACGGTCTA | -0.181 |
| ACGTATTG | -0.0565 |
| GCACGGAC | 0.356 |
| TGCTTACA | -0.274 |
| CGCGTCTA | -0.0418 |
| AGCAACAG | -0.102 |
| GCTCCGGA | 0.461 |
| AGAAGGTA | -0.0743 |
| AGTTGAGC | -0.085 |
| CTGGCGAA | -0.0727 |
| CCACAGGG | -0.176 |
| AAGTCGAG | -0.262 |
| AAAATGCT | 0.0418 |
| ATCAGTGA | -0.145 |
| GGAGTTAA | 0.0523 |
| CGATGTCC | 0.213 |

| Sequence | PBM E-score |
| --- | --- |
| CGTGGTCC | 0.00461 |
| CCTATGAC | -0.258 |
| CGAGGCAG | 0.034 |
| ATTTCAAC | 0.0466 |
| TCATGCGA | 0.0294 |
| AAGTTGGG | -0.14 |
| TACCTCTA | -0.124 |
| CTCCGAGA | 0.274 |
| CAGGGAGA | -0.24 |
| ACGACGGA | 0.328 |
| GGAAACTA | 0.203 |
| ATTTCGCG | 0.254 |
| AACTCTGC | -0.225 |
| GTTCATTA | -0.0216 |
| GTTTAGAA | -0.0239 |
| CAGTCTTA | -0.225 |
| GGCCCGCC | -0.002 |
| GAAAATAA | -0.117 |
| CATTGCTC | 0.0333 |
| GAGACCCA | 0.0907 |
| ACCAGGTG | -0.106 |
| AACTAAGC | -0.108 |
| GAAAACTC | 0.0853 |
| ATTCGTTC | 0.24 |
| ATCTGAGC | 0.0574 |

| Sequence | PBM E-score |
| --- | --- |
| CTGAGATC | -0.00796 |
| AGAAGGAC | -0.216 |
| ACCTGACA | 0.0217 |
| GGGTGTAC | 0.0547 |
| ATTACTGG | -0.161 |
| ACTATGTG | -0.00752 |
| GTAGTCGA | -0.105 |
| AGTACATG | -0.066 |
| ACTTCCGG | 0.42 |
| CAGCGGTC | -0.0607 |
| ACCTGAAA | -0.137 |
| AAGGGAGC | -0.109 |
| AAGCATGT | -0.0953 |
| GATAAAGC | -0.143 |
| CCCAGTCA | -0.313 |
| CCGGATCC | 0.433 |
| GGAATTGA | 0.283 |
| ACTAATGA | -0.0678 |
| TCCGCTCA | 0.138 |
| ATTGAAAC | -0.0481 |
| GGGTTACA | 0.127 |
| ACGTATTA | 0.23 |
| CACTCGTA | -0.165 |
| ATCCTACC | 0.0184 |
| CTCGCAGA | -0.226 |

| Sequence | PBM E-score |
| --- | --- |
| AGCCGGTG | 0.187 |
| GAGGGTAC | -0.0671 |
| AGGTGATC | 0.00785 |
| ACGTCCAT | -0.224 |
| AGCGCAGG | 0.00633 |
| CGATCACG | 0.0265 |
| CGGCCACG | 0.0533 |
| CGCGAAGC | 0.27 |
| ACAGTCTC | -0.169 |
| CGGACTAC | 0.297 |
| CAGCAGGC | -0.0427 |
| ACTTAGAG | -0.354 |
| GCACCTTA | -0.0794 |
| CAGGATTC | 0.0167 |
| TGATCACA | -0.0502 |
| AGCAATGA | -0.0334 |
| GGAGTTCA | 0.117 |
| AGCAACGG | 0.291 |
| ATGAGGCG | -0.00877 |
| ATCGGTTG | -0.0143 |
| ACGATAGT | -0.215 |
| CTGGGGGC | -0.253 |
